Measured values as given in the supplement of paper PMC3334620.
Whole data set: some 33,000 sequences, median “E-score (-0.5 to 0.5)” near -0.054, cut for the highest 2% near 0.39. Some of the results follow.

molecular target: Ylr278c (UniProt Q05854); assay: PBM E-score (8-mer binding enrichment) (E-score (-0.5 to 0.5)); higher = stronger / more preferred TF binding; most listed sequences are background and not binding sites; conditions: protein concentration: 200 nM; construct: GST-DNA-binding domain
Summary of the method: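 Universal all-10-mer Agilent arrays, double-stranded by primer extension on fresh or once-stripped slides, were probed with about 100-200 nM GST-tagged yeast transcription factors made by PURExpress. Fluorescent anti-GST detected bound protein, and masliner normalised the scans. E-scores from the Universal PBM Analysis Suite were given to each ungapped eight-base word pooled with its reverse complement.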

Sequence | PBM E-score
GCATTTGA | 0.0329
ACGGGGTA | 0.108
CCGACTTC | 0.232
AAAATTCC | 0.359
CACGAAGC | -0.146
ACTTGCCT | -0.136
GTTTCCCA | 0.0145
GATGCGAC | 0.0725
CGCGGCAC | 0.212
GAAACGTA | -0.0699
CCGAGGAC | 0.216
GAACAGCA | -0.0275
ACAGTCGT | -0.16
GTGGCGAA | 0.0623
ATGACAAC | -0.036
AAGCGACT | -0.242
GCTCAACA | -0.128
TCAGGAGA | -0.0923
CCGTAACG | 0.0779
GAGGGAAC | 0.143
GAGGTAAA | -0.038
ACGGTATA | 0.0634

Sequence | PBM E-score
GGAGAGCC | 0.0259
AACGTGTC | -0.0761
CCGCTCAC | 0.115
ACGTTGGG | -0.329
ATCCTGCC | -0.0966
GCTTACAC | 0.0701
GGAACAAC | 0.223
CCGTCTGA | 0.081
CCGTTTGA | 0.018
ACTTAAGA | 0.0819
GTGCGGCA | 0.0935
ACAATAGC | -0.207
AGGATGTC | -0.0871
GAAACATA | 0.0768
CGATGACA | 0.0615
CTGGCGGA | 0.183
CTAGCCCA | -0.171
AGTTCAGA | -0.236
CGCTCACA | -0.149
AGGACCTG | -0.186
ATCAGCTA | -0.228
ATAGACGA | -0.0361

Sequence | PBM E-score
CCATGAAG | -0.0668
GCGCACTA | 0.13
GCGCGCCC | 0.202
AAGTGAAA | -0.031
CTACAACA | -0.174
ACTATTGC | 0.0531
AATGCGCC | 0.199
GGAAGGCA | -0.0122
CCATTTTA | 0.107
CGTGGCCA | -0.315
AACTTTCT | 0.0486
ATTTCTCC | 0.33
ATAGTAGC | 0.0024
GGACGGCA | 0.211
CGGATCGC | 0.259
GTGTGACA | -0.215
AAGCTGAA | -0.0151
ACTTGCCG | 0.0488
ATCGAGTG | 0.0113
GGAGCACC | 0.222
AGTATGGC | -0.0866
CTGACAAC | -0.245

Sequence | PBM E-score
AGGTTTCG | -0.0904
ATCAGGAC | -0.13
ATCGCCGC | 0.295
GTCCGCGA | 0.313
AAGGTGCC | -0.0322
GTTGATAA | -0.164
GGCCTCCA | 0.0147
ACGGCTTC | 0.1
GAGAATGA | 0.0136
CGACCACG | 0.0345
CTGCAGCC | -0.0976
ATACAAAT | 0.131
TAATAGCA | -0.158
ATTTCTTA | -0.0929
GCCCCCGA | 0.0674
ACTGTTGG | -0.239
AGACGAAT | -0.244
CGATGAAG | -0.0134
AAGCATCG | -0.0405
ATCTTCCG | 0.368
